# Whole data set: some 110,000 compounds, median “z-score” near -0.1, cut for the highest 2% near 2. The list shows a part of the results. Activity calls are given as the source filed them.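 The calls were made as follows: active = z-score in the third read window above 3 or below -3; inactive = the rest.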
# Target: Metabotropic glutamate receptor 8 (Rattus norvegicus) (UniProt P70579)
# Assay: rat mGluR8 modulators via GIRK flux, primary screen, cell-based, thallium flux, HTS (AID 488969)
# Conditions: HEK293 rat mGluR8, GIRK (G protein-gated inwardly rectifying potassium channel) thallium flux, FluoZin2; at 10 µM; stronger effect = higher value; submaximal glutamate (EC20) added with thallium
# UniProt P70579, sequence (P70579 whole entry, looked up): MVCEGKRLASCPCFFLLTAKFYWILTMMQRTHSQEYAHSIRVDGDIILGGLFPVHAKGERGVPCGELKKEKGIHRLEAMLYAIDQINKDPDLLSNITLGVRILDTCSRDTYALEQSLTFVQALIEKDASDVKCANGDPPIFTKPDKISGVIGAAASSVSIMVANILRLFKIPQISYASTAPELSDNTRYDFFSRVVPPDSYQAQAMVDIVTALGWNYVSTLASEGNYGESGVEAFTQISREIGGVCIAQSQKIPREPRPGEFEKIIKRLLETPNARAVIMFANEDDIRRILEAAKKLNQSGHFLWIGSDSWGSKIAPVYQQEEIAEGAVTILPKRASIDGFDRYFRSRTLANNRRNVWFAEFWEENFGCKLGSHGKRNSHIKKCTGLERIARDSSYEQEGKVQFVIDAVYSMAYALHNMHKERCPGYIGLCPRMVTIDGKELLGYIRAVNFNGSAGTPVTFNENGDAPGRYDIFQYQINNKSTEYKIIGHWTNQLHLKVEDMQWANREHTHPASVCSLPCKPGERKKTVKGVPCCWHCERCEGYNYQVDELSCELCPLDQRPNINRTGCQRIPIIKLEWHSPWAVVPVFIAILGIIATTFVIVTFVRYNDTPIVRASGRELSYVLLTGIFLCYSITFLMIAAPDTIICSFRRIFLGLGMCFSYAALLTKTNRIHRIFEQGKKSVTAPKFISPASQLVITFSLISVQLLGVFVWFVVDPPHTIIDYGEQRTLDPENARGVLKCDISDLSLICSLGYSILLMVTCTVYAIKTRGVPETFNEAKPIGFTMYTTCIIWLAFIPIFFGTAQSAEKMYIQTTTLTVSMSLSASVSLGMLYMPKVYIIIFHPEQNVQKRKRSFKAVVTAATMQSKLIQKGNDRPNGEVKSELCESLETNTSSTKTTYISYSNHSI
row,SMILES,z-score
1,Cc1csc(N(C(=O)c2cccc(S(=O)(=O)N(C)C)c2)c2ccccc2)n1,2.2
2,CC(C)Oc1ccc(/C=N/NC(=O)C2CCCN2S(=O)(=O)c2ccc(Cl)cc2)cc1 (stereo unspecified),-0.222
3,O=C(Nc1ccc(F)cc1)c1cnc(-c2ccccc2)nc1-c1ccccc1,-0.358
4,Cc1ccc(-n2nnnc2SCC(=O)N2c3ccccc3NC(=O)C2(C)C)cc1,1.5
5,CCOC(=O)/C(=N\Nc1ccc(C(C)=O)cc1)c1csc(Nc2ccccc2)n1,-0.306
6,COc1ccc(-c2c(-c3ccc(OCC(=O)NN)cc3O)n[nH]c2C(F)(F)F)cc1,-0.219
7,Nc1cc(N)nc(SCC(=O)c2ccccc2)n1,-0.52
8,CC(C)OP(=O)(OC(C)C)C(Nc1ccccc1)c1ccc2c(c1)OCO2 (stereo unspecified),-0.575
9,CCCn1cc(NC(=O)c2cc(-c3ccccc3)on2)cn1,active: 13
10,Cc1nc2c(=O)n(C)c(=O)[nH]c2n1Cc1ccccc1,0.949
11,O=S(=O)(Nc1ccc(Oc2ncccn2)c(Cl)c1)c1ccc(Cl)cc1,0.13
12,COc1cccc(/C=N/NC(=O)c2ccc(-c3ccccc3)cc2)c1O,-0.388
13,O=C(CNC(=O)c1ccccc1F)NCCOc1ccccc1Cl,-0.065
14,CSc1nc2sc3c(c2c(=O)n1C)CCC(C)C3 (stereo unspecified),-0.327
15,CCC(=O)NC(=S)Nc1cccc(NC(=O)c2ccc(Cl)cc2Cl)c1,0.179
16,C[N+]1(C)CCC(=C2c3ccccc3CC(=O)c3sccc32)CC1,0.586

row,SMILES,z-score
1,CCOC(=O)c1sc2nc(C)cc(C)c2c1NC(=O)c1ccco1,-0.351
2,O=C(Cc1cccs1)N1CCC(c2nc3c(nnn3Cc3ccccc3Cl)c(=O)[nH]2)CC1,-0.576
3,O=S(=O)(Nc1ccc2c(c1)OCO2)c1ccc(Br)s1,-0.167
4,C/C(=N/NC(=O)c1ccncc1)c1cc2ccc(O)cc2oc1=O,-0.853
5,CCCn1c(C)nc2c(c1=O)c1nc3ccccc3nc1n2CCc1ccccc1,-0.0747
6,COc1ccc(NS(=O)(=O)c2cc(S(C)(=O)=O)ccc2C)cc1,-0.235
7,Cc1cc(-c2n[nH]c(=S)n2CC(C)C)cs1,-0.405
8,Cc1cc([N+](=O)[O-])cc2ncccc12,-0.00222
9,O=C(CSc1ncn[nH]1)NCCc1ccccc1,-0.498
10,CCOC(=O)N1CCN(c2cc(=O)n(-c3ccc(Br)cc3)c(=O)[nH]2)CC1,-0.0571
11,COc1ccc(S(=O)(=O)Nc2ccc3ccccc3c2)cc1C,1.03
12,CC1=CCC2C(=O)N(Cc3ccccc3)C(=O)C2C1 (stereo unspecified),0.201
13,COc1ccc(Oc2coc3cc(OC(=O)N4CCOCC4)ccc3c2=O)cc1,-0.0315
14,NC(=O)CSc1nc2c(sc3ccccc32)c(=O)n1CCCN1CCOCC1,0.869
15,O=C(C(=O)N1CCc2ccccc2C1)c1cn(CC(=O)N2CCCC2)c2ccccc12,-0.571
